# From PubChem BioAssay AID1347165 (National Center for Advancing Translational Sciences (NCATS), 2019)
# Several values for one entry are separate records, joined by “and”; a condition that tells them apart may be missing. Equal entries are not always repeated. In all, about 220,000 compounds went through this assay and about 5,700 (2.6%) were called active. The inconclusive results got no clear call from the source; some entries with a clear call stand among them for comparison. Calls come from the whole dose curve; as a rule, active = well fitted inhibition curve with a large enough effect; inconclusive = small, poorly fitted or top-dose-only effect; inactive = no such curve, though single readings can be large or run the other way. Where the call is inconclusive, the potency comes from a doubtful curve fit.
# Biological target: Lysine-specific demethylase 5B (Homo sapiens) (UniProt Q9UGL1)
# Assay: Primary screen for KDM5B Histone Demethylases FDH-coupled qHTS; note: nearly all actives have a fitted effect of over 70% in size; for activity change, negative = inhibition: 0% is about no effect
# Conditions: FDH-coupled NADH fluorescence (FDH is formaldehyde dehydrogenase); activity change, negative = inhibition: at 57.7 µM (top of the series) unless noted
# Method in brief: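 KDM5BΔAP (200 nM final) in 50 mM HEPES pH 7.5, 0.01% Tween-20 was preincubated 10 min at RT with compound over a concentration range. Substrate mix (H3K4me3 12.5 µM, α-KG 25 µM, Fe²⁺, ascorbate, NAD⁺, FDH) was added, and NADH fluorescence change over 30 min gave dose-response curves.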
# Potency is the fitted concentration of half-maximal effect; tags give direction and shape of the fitted curve.
# UniProt Q9UGL1, sequence (Q9UGL1 whole entry, looked up): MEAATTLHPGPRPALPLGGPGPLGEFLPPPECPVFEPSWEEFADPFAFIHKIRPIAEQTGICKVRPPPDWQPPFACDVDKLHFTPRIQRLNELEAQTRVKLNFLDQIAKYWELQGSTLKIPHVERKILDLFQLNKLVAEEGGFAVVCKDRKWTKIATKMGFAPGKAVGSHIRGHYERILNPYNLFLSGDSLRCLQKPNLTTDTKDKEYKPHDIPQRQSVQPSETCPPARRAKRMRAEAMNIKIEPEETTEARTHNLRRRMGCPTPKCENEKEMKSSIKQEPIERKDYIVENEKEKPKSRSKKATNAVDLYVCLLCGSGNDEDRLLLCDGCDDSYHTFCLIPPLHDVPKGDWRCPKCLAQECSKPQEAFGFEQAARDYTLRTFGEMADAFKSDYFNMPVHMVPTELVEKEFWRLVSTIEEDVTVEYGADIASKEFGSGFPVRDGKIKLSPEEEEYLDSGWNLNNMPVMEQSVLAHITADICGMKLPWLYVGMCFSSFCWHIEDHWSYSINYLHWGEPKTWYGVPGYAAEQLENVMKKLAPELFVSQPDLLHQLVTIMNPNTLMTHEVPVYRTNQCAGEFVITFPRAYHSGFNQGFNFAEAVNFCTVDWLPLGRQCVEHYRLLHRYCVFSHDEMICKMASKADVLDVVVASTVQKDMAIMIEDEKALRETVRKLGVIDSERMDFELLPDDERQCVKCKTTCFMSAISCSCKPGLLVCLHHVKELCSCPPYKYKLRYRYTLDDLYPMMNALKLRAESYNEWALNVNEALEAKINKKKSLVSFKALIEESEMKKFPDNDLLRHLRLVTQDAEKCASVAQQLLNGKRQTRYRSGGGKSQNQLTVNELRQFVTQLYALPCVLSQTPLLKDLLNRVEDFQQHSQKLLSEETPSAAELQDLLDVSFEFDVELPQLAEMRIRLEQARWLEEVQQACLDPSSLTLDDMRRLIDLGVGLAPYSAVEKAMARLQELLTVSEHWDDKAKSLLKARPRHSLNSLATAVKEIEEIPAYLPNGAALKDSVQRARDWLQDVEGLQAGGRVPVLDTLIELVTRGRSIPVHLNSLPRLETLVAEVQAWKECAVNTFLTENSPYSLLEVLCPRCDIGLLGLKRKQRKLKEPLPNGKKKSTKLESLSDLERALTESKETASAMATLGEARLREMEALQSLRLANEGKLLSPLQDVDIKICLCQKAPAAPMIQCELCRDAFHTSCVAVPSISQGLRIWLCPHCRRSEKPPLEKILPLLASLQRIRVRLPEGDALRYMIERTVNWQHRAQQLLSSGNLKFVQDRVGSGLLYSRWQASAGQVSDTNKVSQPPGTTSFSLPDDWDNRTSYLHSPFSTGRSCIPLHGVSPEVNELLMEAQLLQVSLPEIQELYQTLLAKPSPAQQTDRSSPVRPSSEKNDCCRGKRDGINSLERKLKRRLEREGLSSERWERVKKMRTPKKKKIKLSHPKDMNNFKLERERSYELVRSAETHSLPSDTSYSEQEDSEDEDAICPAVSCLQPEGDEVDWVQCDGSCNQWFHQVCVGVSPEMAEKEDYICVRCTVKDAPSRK
Compound,Potency,"activity change, negative = inhibition"
COC(=O)c1sccc1S(=O)(=O)N[C@H]1C[C@@H](C(=O)OC)N(C)C1,"inconclusive: 31.6 µM [inhibitor, partial curve, poor fit]",–
COC(=O)CC1Oc2ccccc2-n2cc(-c3ccc(Cl)cc3)nc21 (configuration not stated),–,inconclusive: -31.7% [inhibitor]
OC[C@@H]1O[C@H](CNC2CCOCC2)[C@H](N2CCN(c3ccccn3)CC2)[C@@H]1O,"inconclusive: 20 µM [inhibitor, partial curve]",–
COCCNc1ncc(-c2ccc([S+](C)(=O)[O-])cc2)c2c1OCC2,active: 31.6 µM,–
O=C(NCc1cccs1)c1cc(-c2ccc(Cl)cc2Cl)c2nncn2n1,"inconclusive: 56.2 µM [inhibitor, partial curve]",–
CC(C)Oc1ccccc1/C=N/O,inactive,–
Cc1cc(C)cc(-c2ccc(CN3CCCC(c4nc5ccc(F)cc5c(=O)[nH]4)C3)cc2)c1 (configuration not stated),"inconclusive: 50.1 µM [inhibitor, partial curve]",–
Cc1cccc(-c2ccc3c(c2)C(=O)N2CC[C@H](NC(=O)C4CCCC4)[C@H]2C(=O)N3)c1C,inactive,–
S=C1NC(c2cccs2)=CC(c2ccc(Br)cc2)N1 (configuration not stated),"inconclusive: 25.1 µM [inhibitor, partial curve, poor fit]",–
O=C(Nc1nnc(-c2ccc(F)cc2)s1)c1ccco1,"inconclusive: 25.1 µM [inhibitor, partial curve, poor fit]",–
CC1Oc2ccc(NC(=O)COc3ccccc3)cc2CN(Cc2ccccc2Cl)C1=O (configuration not stated),inactive,–
COC(=O)c1c(C)[nH]c(C(=O)C(C)OC(=O)c2c(F)cccc2F)c1C (configuration not stated),inactive,–
COc1cccc(-c2ccc(CN3CCCC(c4nc5ccc(C)cc5c(=O)[nH]4)C3)cc2)c1 (configuration not stated),"inconclusive: 79.4 µM [inhibitor, partial curve, poor fit] and active: 35.5 µM",–
Cc1csc(NC(=O)c2nc3c(o2)CCN(Cc2ccccc2F)CC3)n1,inactive,–
CN1C(=O)C(CC(=O)N2CCCNCC2)(Cc2ccccc2)c2ccccc21 (configuration not stated),"inconclusive: 22.4 µM [inhibitor, partial curve, poor fit]",–
CC(C)(C)NS(=O)(=O)c1ccccc1-c1nc(N)nc2c1CCC2,active: 22.4 µM,–
COc1ccc(C)cc1NC(=O)Cn1c(C(=O)c2cccc(F)c2)nc2ccccc21,inactive,–
COc1ccc(N2CCN(C(=O)Nc3cccc(C(F)(F)F)c3)CC2)cc1,–,inconclusive: -37% [inhibitor]
Cc1cccc(-c2nc3cc(NC(=O)c4ccco4)ccc3o2)c1,"inconclusive: 22.4 µM [inhibitor, partial curve, poor fit]",–
Cc1ccc(-n2c(=O)c3oc4ccccc4c3n(CC(=O)Nc3ccccc3)c2=O)cc1C,"inconclusive: 39.8 µM [inhibitor, single point]",–
CCN(Cc1nc(-c2cccc(C)c2)no1)C(=O)Nc1cccc2ccccc12,"inconclusive: 20 µM [inhibitor, single point]",–
O=C(/C=C/c1ccncc1)c1ccc(N2CCOCC2)cc1,"inconclusive: 35.5 µM [inhibitor, single point]",–
O=C(O)CCC(=O)N1N=C(c2ccsc2)CC1c1ccccc1Cl (configuration not stated),inactive,–

Compound,Potency,"activity change, negative = inhibition"
Cn1c(=O)c2c(nc(N/N=C/c3cccs3)n2C)n(C)c1=O,"inconclusive: 2 µM [inhibitor, full curve, poor fit]",–
COc1ccc(C(=O)NCC2COc3ccccc3O2)cc1OC (configuration not stated),inactive,–
CCc1c(C)sc(NC(=O)c2cccc(Br)c2)c1C#N,inactive,–
CCc1c(C)sc(NC(=O)C2CCC2)c1C#N,inactive,–
O=c1[nH]cccc1NS(=O)(=O)c1ccc(Cl)cc1,inactive,–
Cc1[nH]c2ccccc2c1C(=O)/C(C#N)=C\c1ccccc1Cl,inactive,–
COc1cccc(-c2ccc3c(N)c(C(=O)Nc4ccc(C)c(F)c4)sc3n2)c1,"inconclusive: 25.1 µM [inhibitor, partial curve, poor fit]",–
O=C(NC1(c2ccccc2)CCC1)c1ccc(F)cc1Br,inactive,–
COc1ccc(NS(=O)(=O)c2ccc3[nH]c4c(c3c2)CCCCCC4)cc1,"inconclusive: 25.1 µM [inhibitor, single point]",–
Cc1noc(C(C)Nc2ccc(N3CCCC3=O)c(Cl)c2)n1 (configuration not stated),inactive,–
Fc1ccc(CNc2nc(-c3ccccc3)cc(C(F)(F)F)n2)cc1,"inconclusive: 31.6 µM [inhibitor, partial curve, poor fit]",–
c1cn(CC2COCCO2)c(-c2cc3n(n2)CCCNC3)n1 (configuration not stated),"inconclusive: 25.1 µM [inhibitor, partial curve]",–
COCCNC(=O)c1cc(NC(=O)C(C)C)cc2nc(C)ccc12,active: 25.1 µM,–
Cc1cccc(CS(=O)(=O)c2ncc(Cl)c(C(=O)NCc3ccccc3)n2)c1,"inconclusive: 25.1 µM [inhibitor, partial curve, poor fit]",–
CC(=O)NCCc1ccc(C(=O)COC(=O)c2ccc(C)cc2O)s1,inactive,–
COc1ncccc1-c1cc2c(nc1OC)nc(CC1CC1)n2C,"inconclusive: 44.7 µM [inhibitor, partial curve, poor fit]",–
COc1ccccc1CN1CCCn2nc(C)c(-c3cccnc3N3CCOCC3)c21,"inconclusive: 25.1 µM [inhibitor, partial curve, poor fit]",–
COc1cccc(/C=C(/C#N)c2ccccn2)c1OC(F)F,"inconclusive: 22.4 µM [inhibitor, partial curve, poor fit]",–
Cn1c(=O)[nH]c(=O)c2c1nc(SCC(=O)Nc1ccccc1)n2Cc1cccc(Cl)c1,inactive,–
COc1cccc(CN2CC[C@@H]3C(=O)NCCCCCCN(Cc4ccncc4)[C@@H]3C2)n1,"inconclusive: 17.8 µM [inhibitor, single point]",–
CCc1cc2c(CN3CCN(CCO)CC3)cc(=O)oc2cc1O,"inconclusive: 25.1 µM [inhibitor, partial curve, poor fit] and inconclusive: 22.4 µM [inhibitor, partial curve, poor fit]",–
CCOC(=O)/C(=C\c1ccc(OC)c(OC)c1)C(=O)c1cccnc1,"inconclusive: 20 µM [inhibitor, single point]",–
CCCCNC(=O)CCc1c(C)nc2c(c(C)nn2-c2ccccc2)c1C,"inconclusive: 14.1 µM [inhibitor, partial curve, poor fit] and inconclusive: 22.4 µM [inhibitor, partial curve, poor fit]",–

Compound,Potency,"activity change, negative = inhibition"
COc1cccc(CN2C[C@@H](CO)[C@H](NC(=O)c3ccccc3)C2)c1,inactive,–
COCCNc1ncnc2c1c(-c1ccccc1)cn2-c1cccc(Cl)c1,"inconclusive: 35.5 µM [inhibitor, single point]",–
O=C(Nc1cccc(F)c1)N1CCc2c(c3ccccc3n2CC2CC2)C1,active: 22.4 µM,–
CCc1ccc(NCc2cc3cc4c(cc3n(CC(=O)Nc3ccc(F)cc3)c2=O)OCCO4)cc1,"inconclusive: 3.98 µM [inhibitor, partial curve, poor fit]",–
Cc1ccc(C)c(NC(=O)c2cc(=O)c3cc(C)cc(C)c3o2)c1,inactive,–
COc1cc(C2CC(=O)N3CN(c4cccc(C)c4)CSC3=C2C#N)ccc1O (configuration not stated),"inconclusive: 10 µM [inhibitor, partial curve, poor fit]",–
Cc1cccc(C(=O)NC(Nc2cccc3ccccc23)C(Cl)(Cl)Cl)c1 (configuration not stated),"inconclusive: 14.1 µM [inhibitor, partial curve, poor fit]",–
CCc1cccc(NC(=O)c2ccc(Cn3ccn4nc5c(c4c3=O)CCCC5)cc2)c1,"inconclusive: 20 µM [inhibitor, partial curve]",–
O=C1CCCN1c1ccc(Cn2ccn3nc(-c4ccccc4)c(CO)c3c2=O)cc1,inactive,–
COc1ccc(/C=C2\N=C(SC)SC2=O)cc1,inactive,–
CCn1c(C)c(C)c2cc(C(=O)NCCc3ccc(C)cc3)ccc21,"inconclusive: 28.2 µM [inhibitor, partial curve, poor fit]",–
COCCc1noc(-c2ccccc2OC2CN(C(=O)c3ccc(C)nc3)C2)n1,"inconclusive: 28.2 µM [inhibitor, single point]",–
Cc1noc2c(-c3cccnc3NCc3cccnc3)cc(-c3ccccc3)nc12,"inconclusive: 35.5 µM [inhibitor, partial curve, poor fit]",–
COc1ccccc1-c1nc(S(=O)(=O)c2ccc3c(c2)OCCO3)c(N2CCCC2)o1,"inconclusive: 39.8 µM [inhibitor, single point]",–
CSc1ccccc1NC(=O)c1cnc(-c2ccc(C)cc2)nc1-c1ccncc1,"inconclusive: 39.8 µM [inhibitor, single point]",–
N[C@@H]1CC[C@H](C(=O)N2CCN(CCCOc3ccc(F)cc3)CC2)C1,inactive,–
COc1ccc(C(=O)NC2CCN(c3cc(-c4ccccc4)[nH]n3)CC2)cc1OC,"inconclusive: 25.1 µM [inhibitor, single point]",–
Cc1cc(=O)oc2cc(OC(=O)C(C)Oc3ccccc3Cl)ccc12 (configuration not stated),inactive,–
CC(C)Cn1c(/C=C/c2ccc(F)cc2)nc2ccccc21,"inconclusive: 28.2 µM [inhibitor, partial curve, poor fit]",–
COCCCNC(=O)CCc1c(C)nc2cc(-c3ccc(Cl)cc3)nn2c1C,"inconclusive: 5.62 µM [inhibitor, partial curve, poor fit]",–
CCCCc1cc(=O)oc2cc(OC(C)C(=O)NCCCO)ccc12 (configuration not stated),"inconclusive: 22.4 µM [inhibitor, partial curve, poor fit]",–
